Data from paper PMC6919601, “Identification of Plasmodium dipeptidyl aminopeptidase allosteric inhibitors by high throughput screening” (PLoS ONE, 2019).
About 230 (0.21%) of roughly 110,000 compounds showed an effect of 50% or more. This is one part of the list.

Target: DPAP1 (Plasmodium falciparum, UniProt Q8IIJ9)
Assay: primary screen, percent inhibition; read by cleavage of a fluorogenic dipeptide substrate; higher = more effect of the substance
Set-up: species or system P. falciparum D10 trophozoite lysates; single well
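Further: 30 min substrate incubation versus DMSO and 10 µM JCP410 controls.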

Chain of DPAP1 (Q8IIJ9 whole entry, looked up): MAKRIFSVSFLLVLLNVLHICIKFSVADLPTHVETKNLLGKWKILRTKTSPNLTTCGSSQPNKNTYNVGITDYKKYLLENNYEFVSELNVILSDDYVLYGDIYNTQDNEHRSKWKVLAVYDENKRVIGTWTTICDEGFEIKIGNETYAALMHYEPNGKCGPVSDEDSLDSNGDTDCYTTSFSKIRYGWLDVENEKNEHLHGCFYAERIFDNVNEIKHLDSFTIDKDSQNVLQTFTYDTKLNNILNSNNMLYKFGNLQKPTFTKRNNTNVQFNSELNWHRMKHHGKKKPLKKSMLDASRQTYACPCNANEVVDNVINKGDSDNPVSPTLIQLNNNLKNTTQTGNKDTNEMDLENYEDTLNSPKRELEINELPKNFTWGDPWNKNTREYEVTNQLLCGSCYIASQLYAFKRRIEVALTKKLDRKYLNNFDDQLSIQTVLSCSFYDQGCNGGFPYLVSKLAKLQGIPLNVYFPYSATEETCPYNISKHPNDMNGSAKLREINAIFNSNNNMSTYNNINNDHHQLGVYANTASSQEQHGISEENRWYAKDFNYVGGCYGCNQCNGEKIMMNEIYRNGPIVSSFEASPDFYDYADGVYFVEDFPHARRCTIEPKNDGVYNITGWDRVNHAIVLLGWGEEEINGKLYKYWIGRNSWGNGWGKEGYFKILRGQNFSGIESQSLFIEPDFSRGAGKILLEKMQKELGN

| SMILES | % Inhibition @ 10 uM [%] |
| --- | --- |
| CCC1CCCCN1CCCNC(=O)c1ccc(CS(=O)(=O)c2ccccc2C)o1 (centres unmarked) | 0.458 |
| OC1(c2ccc(Br)cc2)CCN(Cc2ccccc2)CC1 | 6.26 |
| COc1ccccc1Cn1nnc2c(O)nc(C3CCN(C(=O)c4ccccc4Cl)CC3)nc21 | 1.12 |
| Cc1ccccc1NC(=O)c1onc2c1CCCC2 | 4.31 |
| CCCOc1ccc(C(=O)C2=C(O)C(=O)N(c3ccccn3)C2c2ccc(OC)cc2)cc1C (centres unmarked) | 4.74 |
| CCOc1ccc(Nc2nc(N)nc(CN(C)C3CCCCC3)n2)cc1 | 4.31 |
| Cc1cc2nc(NC3=NCN(Cc4ccc(Cl)cc4)CN3)nc(C)c2cc1C | 0.0539 |
| COc1cc(C2C(C#N)=C(N)Oc3[nH]nc(-c4cccnc4)c32)cc(Br)c1O (centres unmarked) | 2.49 |
| CCC(CC)C(=O)Nc1ccc(NC(=O)C(CC)CC)cc1 | 5.69 |
| CC(C)CC(NC(=O)c1cccc(NC(=O)Nc2cccc(C(=O)NC(CC(C)C)C(=O)NCC#N)c2)c1)C(=O)NCC#N (centres unmarked) | -11 |
| Cc1ccc(COc2ncnc3[nH]cnc23)c(C)c1 | -3.09 |
| CCNC(=O)CN(C)S(=O)(=O)c1ccc(OC)c(OC)c1 | 2.86 |
| Cc1cccc(-n2nc3c(c2NC(=O)/C=C\c2ccc4c(c2)OCO4)CSC3)c1C | -4.32 |
| CC(C)C[C@H](NC(=O)c1ccc(-c2csc(N=C(N)N)n2)cc1)C(=O)N[C@@H](CCCCNC(=O)OCc1ccccc1)C(=O)O | -1.41 |
| CC(C(=O)NCCc1ccc(Cl)cc1)n1ccc2cc(S(=O)(=O)N3CCCC3)ccc21 (centres unmarked) | -1.39 |
| O=c1c2nccnc2nc(SCc2cccc(Cl)c2)n1Cc1ccc2c(c1)OCO2 | -5.01 |
| COc1ccc(C2C3=C(O)CCCC3=Nc3nc(SCc4ccc(C(=O)O)cc4)nn32)cc1 (centres unmarked) | 1.62 |
| COC(=O)c1cnn2c1NCN(Cc1ccccc1Cl)C2 | 3.96 |
| Cn1c2ccccc2c2cnn(CC(=O)NCCC3=CCCCC3)c(=O)c21 | -7.36 |
| COCCCNC(=O)Nc1cn(CC(C)C)c(=O)c2ccccc12 | -2.71 |
| O=C1c2ccccc2NC(c2ccc3c(c2)OCO3)N1c1ccccc1 (centres unmarked) | -2.97 |
| CCOc1ccccc1C1C(C(=O)OC)=CN(C(C)C)C=C1C(=O)OC | -1.48 |
| Cc1ccccc1-n1nnnc1-c1ccc(-c2nnnn2-c2ccccc2C)cc1 | -0.818 |
| CSc1ccc(C2C(C#N)=C(N)Oc3cc(N)ccc32)cc1 (centres unmarked) | 7.65 |
| O=C(NC1(C(F)(F)F)C(=O)Nc2c1c(=O)[nH]c(=O)n2-c1ccc(F)cc1)c1ccccc1F (centres unmarked) | 0.475 |
| c1ccc2c(c1)c(N1CCOCC1)nn1nnnc21 | 5.86 |

| SMILES | % Inhibition @ 10 uM [%] |
| --- | --- |
| O=C(CN1CC(c2ccccc2)CC1=O)NC1C2CC3CC(C2)CC1C3 (centres unmarked) | -0.833 |
| O=C(O)c1ccc(-c2ccc(O)c(F)c2)cc1 | 0.0538 |
| O=C(CN(Cc1ccccc1)S(=O)(=O)c1ccc(Br)cc1)N1CCCCCC1 | 5.12 |
| Cc1[nH]c2ccccc2c1CN1CCCC(C(N)=O)C1 (centres unmarked) | 3.68 |
| COc1ccccc1CNC(=O)c1nn(C)c2c1CS(=O)(=O)c1ccccc1-2 | 1.79 |
| O=C(NC1CCCCCC1)c1ccc2c(c1)OCO2 | -4.41 |
| COc1ccc(/C=C2\CCC(C3CCCC3)C2=O)cc1OC (centres unmarked) | 4.06 |
| CCOC(=O)COc1ccccc1C(C)=O | 3.42 |
| N#Cc1ccccc1N1C(=O)C2C3C=CC(C3)C2C1=O (centres unmarked) | 4.3 |
| CC(=O)c1cc2cc(Br)ccc2oc1=O | -0.546 |
| O=C1OC2(CCCC2)OC(=O)C1=Cc1ccc(Br)cc1 | -5.28 |
| O=[N+]([O-])c1ccc(O)c(CN2CCCCCC2)c1 | -1.78 |
| CCOC(=O)NS(=O)(=O)c1cnccc1Sc1cccc(C)c1 | 5.17 |
| C=CCc1cc(/C=C2/NC(=O)N(CC(=O)Nc3cccc(C)c3)C2=O)cc(OC)c1O | 29.4 |
| Cn1ncc(Cl)c1C(=O)N1CCc2ccccc21 | -3.19 |
| CC1CCC(N2CCC(C(N)=O)CC2)CC1 (centres unmarked) | -4.75 |
| COc1cc(C2CC(=O)Nc3ccc4ccccc4c32)ccc1OCC(=O)Nc1ccccc1 (centres unmarked) | -0.522 |
| O=C(NC1(C(F)(F)F)Oc2cc(Cl)c(Cl)cc2O1)N1CCCC1 | 3.51 |
| CCCCn1c(C)c(C(C)=O)c2cc(OC)ccc21 | 0.35 |
| Cc1ccc(S(=O)(=O)c2nnn3c2nc(N2CCC(C)CC2)c2sccc23)cc1C | -5.57 |
| O=C(NCc1cccs1)C1CCN(S(=O)(=O)c2ccc3nc(O)ccc3c2)CC1 | 5.39 |
| Cn1cccc1CNCc1cccnc1 | -1.72 |
| CC(C)C[C@H](NC(=O)N1CCN(c2ccccc2F)CC1)C(=O)NCC#N | -0.207 |
| CCC(C#CCN1CCOCC1)OC(C)=O (centres unmarked) | 5.32 |
| CCNC(=S)N1CCn2cccc2C1c1cccs1 (centres unmarked) | -0.0419 |
| CC(C)CC(=O)Nc1sc2c(c1C#N)CCCCC2 | 2.01 |

| SMILES | % Inhibition @ 10 uM [%] |
| --- | --- |
| CCOC1CC(C)(C)Oc2ccc3oc(C(=O)NCCN4CCCCCC4)c(C)c3c21 (centres unmarked) | -11 |
| Cc1c(C(=O)NCC2CCCO2)oc2c1-c1nn(Cc3ccc(Cl)cc3)cc1CC2 (centres unmarked) | 7.38 |
| Cc1n[nH]c(C)c1Nc1cnn(C23CC4CC(CC(CC(=O)O)(C4)C2)C3)c(=O)c1Cl | -5.27 |
| C=CCOc1c(Br)cc(CNC(C)(C)C)cc1OC | 3.8 |
| Cc1nn(CCC(=O)NCCC2=CCCCC2)c(=O)c2nn(-c3ccccc3)c(C)c12 | -8.76 |
| O=C1c2ccccc2C(O)N1CCN1CCOCC1 (centres unmarked) | -4.69 |
| COc1ccc(C)cc1N(CC(=O)N1CCOCC1)S(C)(=O)=O | -1.07 |
| CCc1ccc(-c2ncnn2-c2ccc(Cl)cc2)cc1 | 3.05 |
| CN(C)c1ccc(C2C(C(=O)c3ccccc3)=C(O)C(=O)N2c2ccccc2)cc1 (centres unmarked) | 0.35 |
| CC(C)CCNC(=O)c1cnn(-c2cccc(F)c2)c1-n1cccc1 | -4.55 |
| CC1(C)CC(O)=C(C(=S)Nc2ccccc2)/C(=N/CCc2ccccc2)C1 | -7.3 |
| Brc1ccccc1OCCCN1CCOCC1 | 3 |
| CCOc1ccccc1N1CCN(C2CCN(C)CC2)CC1 | 3.68 |
| CC(C)n1cc2c(c1-c1ccccc1)c(=O)n(C)c(=O)n2C | -4.26 |
| CCN1CCN(c2nc3c(c(=O)n(C)c(=O)n3C)n2C(C)C)CC1 | 0.627 |
| OCCN1CCN(c2nc(NCC3CCCO3)c3ccccc3n2)CC1 (centres unmarked) | -6.39 |
| CS(=O)(=O)c1nc(S(=O)(=O)c2ccc(Cl)cc2)c(N2CCN(CCO)CC2)s1 | -0.522 |
| Cc1cccc2c1cnn2C(=O)CCC(=O)NC1CCCc2ccccc21 (centres unmarked) | 4.84 |
| CC(C)CC(C(=O)NCC#N)c1cccc(-c2cccc(Br)n2)c1 (centres unmarked) | 4.63 |
| CCC1CCC(N2CC(C)OC(C)C2)CC1 (centres unmarked) | 0.273 |
| CCC(C(=O)NCc1ccc(OC(C)C)cc1)n1nc(C)c2sc3ccccc3c2c1=O (centres unmarked) | 2.8 |
| O=C(NC1CCCCC1)C1CCC(CNS(=O)(=O)c2cccc3nsnc23)CC1 (centres unmarked) | 2.93 |
| O=C1C2CC=CCC2C(=O)N1c1ccc(Br)cc1 (centres unmarked) | 3.53 |
| CC1CC(C)CN(CCCNC(=O)c2ccc3c(c2)ncn3C2CCCC2)C1 (centres unmarked) | 3.66 |
| CCC1(C(=O)c2ccc(Cl)cc2)C2c3cc(Br)ccc3OC(=O)C21C(C)=O (centres unmarked) | -0.703 |
| CCOC(=O)c1c(NC(=O)c2ccc(N)c([N+](=O)[O-])c2)sc2c1CCCC2 | -1.97 |

| SMILES | % Inhibition @ 10 uM [%] |
| --- | --- |
| CCOc1ccc(CNc2ccc(OCC)cc2)cc1 | -10.7 |
| COc1ccc(CNC(=O)CNS(=O)(=O)c2ccc(OC)cc2)cc1 | 5.43 |
| CC(C)CN(CC(C)C)c1nnc(NC(=O)NC2CCCC2)s1 | 5.42 |
| COc1cccc(NC(=O)CCC(=O)Nc2cccc(OC)c2)c1 | -3.41 |
| C=CCNc1oc(/C=C/c2ccc(OCC)cc2)nc1C#N | 4.83 |
| COc1ccc(C2=CC(c3ccccc3OC(F)F)n3ncnc3N2)cc1 (centres unmarked) | 0.0842 |
| COc1cc(C(=O)Nc2sc3c(c2C(N)=O)CCCCC3)cc(OC)c1OC | 7 |
| COc1ccc(NC(=O)OCC23COCN2COC3)cc1 | -2.67 |
| CC1=CC(C)(C)N(Cc2ccc(CN3c4cc(C)ccc4C(C)=CC3(C)C)cc2)c2cc(C)ccc21 | 2.6 |
| N#Cc1cc2c(N)c(C(=O)Nc3ccc(F)cc3Cl)sc2nc1N | 1.52 |
| CC(=O)OC(C#CCN1CCCCC1)c1ccccc1 (centres unmarked) | -2.32 |
| CN1CCN(CCC(=O)Nc2ccc(C3CCCC3)cc2)CC1 | 1.19 |
| Nc1ccc(-c2nc3ccc(N)cc3o2)cc1 | 1.42 |
| Nc1c(-c2nc(-c3ccccc3F)no2)nnn1-c1ccccc1C(F)(F)F | -2.15 |
| Clc1cccc(-c2nnc3sc(CCc4ccccc4)nn23)c1 | 4.28 |
| CC(C)OCCCn1c(=O)c2ccccc2n2c(CCC(=O)NCc3ccc(F)cc3)nnc12 | 0.277 |
| COc1ccc(-c2nc(S)c3c(n2)Oc2c(O)cccc2C3)cc1OC | 10.6 |
| Cc1nn(-c2nc3c(C)cccc3s2)c(N)c1C#N | -3.63 |
| Cc1ccc(-c2csc(/C(C#N)=C/c3ccccc3F)n2)c(C)c1 | -5.32 |
| CCC(O)(C#CCN1CCCCC1)CC | 1.13 |
| CCCC1=Nc2ncnn2C(c2cc(OC)ccc2OC)/C1=C(/O)OCC (centres unmarked) | -3.37 |
| COC(=O)C1=C(C)N=C(C)/C(=C(/O)OC)C1c1ccc(Cl)cc1 (centres unmarked) | 1.57 |
| Cc1cc(=O)n(CC(=O)NCCc2ccccc2)c2c1c(C)nn2C | 2.29 |
